In PMC12820563, “FoxP3 forms a head-to-head dimer in vivo and stabilizes its multimerization on adjacent microsatellites”:
This is one part of the list.

What follows are sequences tested against T1, MBP-FoxP1dN (Mus musculus, UniProt P58462 326-579) (assay: PD-seq (MBP pull-down with sequencing); 20 mM Tris-HCl pH 7.5, 100 mM NaCl, 1.5 mM MgCl2, 0.4 uM protein, 0.1 uM dsDNA library, 30 min, room temperature, amylose pull-down; high values mean tight binding). Details: protein: recombinant; tags: His6-MBP; chain copies: 2; dsDNA, one strand shown.
T1 sequence: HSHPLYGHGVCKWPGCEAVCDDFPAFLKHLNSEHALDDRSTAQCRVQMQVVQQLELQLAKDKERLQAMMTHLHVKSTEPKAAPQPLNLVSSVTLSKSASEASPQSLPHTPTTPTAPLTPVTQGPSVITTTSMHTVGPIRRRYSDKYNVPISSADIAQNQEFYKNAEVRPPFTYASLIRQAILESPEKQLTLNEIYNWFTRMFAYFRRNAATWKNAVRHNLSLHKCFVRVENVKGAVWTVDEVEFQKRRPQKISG
Summary of the method: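 In Tris pH 7.5 buffer with NaCl and MgCl2, 0.4 µM His6-MBP-tagged mouse FoxP3 or FoxP1 fragment lacking the N-terminus, from E. coli, met 0.1 µM Klenow-filled double-stranded degenerate DNA library for 30 min at room temperature. Three washes on amylose resin followed capture of the complexes, then proteinase K release of DNA, PCR barcoding and Illumina sequencing. Binding is taken as pooled-replicate reads-per-million enrichment of pull-down relative to input.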

Sequence | binding signal
GATGATTGTTCTCCCAGCTGATGAATTAAGTCCCTCGAGTAAACAAATTTTCCTAATCTTTCTGTTCAAGCGCCATCTAC | 0.871 RPM ratio (pull-down/input)
GATGATTGTTCTCCCAGCTGATGAATTGGTAGGCTCGAGTAAACAAATTTTCCTAATCTTTCTGTTCAAGCGCCATCTAC | 0.819 RPM ratio (pull-down/input)
GATGATTGTTCTCCCAGCTGATGAATTGTAGAAGTCGAGTAAACAAATTTTCCTAATCTTTCTGTTCAAGCGCCATCTAC | 0.839 RPM ratio (pull-down/input)
GATGATTGTTCTCCCAGCTGATGAATTTTTGTGTTCGAGTAAACAAATTTTCCTAATCTTTCTGTTCAAGCGCCATCTAC | 1.95 RPM ratio (pull-down/input)
GATGATTGTTCTCCCAGCTGATGAATTTATGTTCTCGAGTAAACAAATTTTCCTAATCTTTCTGTTCAAGCGCCATCTAC | 1.33 RPM ratio (pull-down/input)
GATGATTGTTCTCCCAGCTGATGAATTTCAGGTGTCGAGTAAACAAATTTTCCTAATCTTTCTGTTCAAGCGCCATCTAC | 0.789 RPM ratio (pull-down/input)
GATGATTGTTCTCCCAGCTGATGAATTAACGTTCTCGAGTAAACAAATTTTCCTAATCTTTCTGTTCAAGCGCCATCTAC | 0.931 RPM ratio (pull-down/input)
GATGATTGTTCTCCCAGCTGATGAATTTATTGACTCGAGTAAACAAATTTTCCTAATCTTTCTGTTCAAGCGCCATCTAC | 1.85 RPM ratio (pull-down/input)
GATGATTGTTCTCCCAGCTGATGAATTGGTCAGATCGAGTAAACAAATTTTCCTAATCTTTCTGTTCAAGCGCCATCTAC | 0.849 RPM ratio (pull-down/input)
GATGATTGTTCTCCCAGCTGATGAATTAGCCAGGTCGAGTAAACAAATTTTCCTAATCTTTCTGTTCAAGCGCCATCTAC | 0.814 RPM ratio (pull-down/input)
GATGATTGTTCTCCCAGCTGATGAATTGGTGATTTCGAGTAAACAAATTTTCCTAATCTTTCTGTTCAAGCGCCATCTAC | 1.17 RPM ratio (pull-down/input)
GATGATTGTTCTCCCAGCTGATGAATTGGGCAATTCGAGTAAACAAATTTTCCTAATCTTTCTGTTCAAGCGCCATCTAC | 0.936 RPM ratio (pull-down/input)
GATGATTGTTCTCCCAGCTGATGAATTTGAATGCTCGAGTAAACAAATTTTCCTAATCTTTCTGTTCAAGCGCCATCTAC | 1.14 RPM ratio (pull-down/input)
GATGATTGTTCTCCCAGCTGATGAATTTCCTCACTCGAGTAAACAAATTTTCCTAATCTTTCTGTTCAAGCGCCATCTAC | 0.81 RPM ratio (pull-down/input)
GATGATTGTTCTCCCAGCTGATGAATTTATTAAATCGAGTAAACAAATTTTCCTAATCTTTCTGTTCAAGCGCCATCTAC | 1.39 RPM ratio (pull-down/input)
GATGATTGTTCTCCCAGCTGATGAATTTCTTCCTTCGAGTAAACAAATTTTCCTAATCTTTCTGTTCAAGCGCCATCTAC | 0.851 RPM ratio (pull-down/input)

Sequence | binding signal
GATGATTGTTCTCCCAGCTGATGAATTATTCGTTTCGAGTAAACAAATTTTCCTAATCTTTCTGTTCAAGCGCCATCTAC | 1.01 RPM ratio (pull-down/input)
GATGATTGTTCTCCCAGCTGATGAATTTAGTCCCTCGAGTAAACAAATTTTCCTAATCTTTCTGTTCAAGCGCCATCTAC | 0.912 RPM ratio (pull-down/input)
GATGATTGTTCTCCCAGCTGATGAATTGGTTCGGTCGAGTAAACAAATTTTCCTAATCTTTCTGTTCAAGCGCCATCTAC | 0.883 RPM ratio (pull-down/input)
GATGATTGTTCTCCCAGCTGATGAATTGTCCCTCTCGAGTAAACAAATTTTCCTAATCTTTCTGTTCAAGCGCCATCTAC | 0.967 RPM ratio (pull-down/input)
GATGATTGTTCTCCCAGCTGATGAATTTGCCCAGTCGAGTAAACAAATTTTCCTAATCTTTCTGTTCAAGCGCCATCTAC | 0.855 RPM ratio (pull-down/input)
GATGATTGTTCTCCCAGCTGATGAATTCGGTAGTTCGAGTAAACAAATTTTCCTAATCTTTCTGTTCAAGCGCCATCTAC | 0.877 RPM ratio (pull-down/input)
GATGATTGTTCTCCCAGCTGATGAATTCTGTAAGTCGAGTAAACAAATTTTCCTAATCTTTCTGTTCAAGCGCCATCTAC | 0.922 RPM ratio (pull-down/input)
GATGATTGTTCTCCCAGCTGATGAATTTATAATTTCGAGTAAACAAATTTTCCTAATCTTTCTGTTCAAGCGCCATCTAC | 1.19 RPM ratio (pull-down/input)
GATGATTGTTCTCCCAGCTGATGAATTACCGATATCGAGTAAACAAATTTTCCTAATCTTTCTGTTCAAGCGCCATCTAC | 1.02 RPM ratio (pull-down/input)
GATGATTGTTCTCCCAGCTGATGAATTTGAGAGCTCGAGTAAACAAATTTTCCTAATCTTTCTGTTCAAGCGCCATCTAC | 0.742 RPM ratio (pull-down/input)
GATGATTGTTCTCCCAGCTGATGAATTCCTTTCATCGAGTAAACAAATTTTCCTAATCTTTCTGTTCAAGCGCCATCTAC | 0.854 RPM ratio (pull-down/input)
GATGATTGTTCTCCCAGCTGATGAATTCCGTGAGTCGAGTAAACAAATTTTCCTAATCTTTCTGTTCAAGCGCCATCTAC | 0.819 RPM ratio (pull-down/input)
GATGATTGTTCTCCCAGCTGATGAATTCTACAAATCGAGTAAACAAATTTTCCTAATCTTTCTGTTCAAGCGCCATCTAC | 1.12 RPM ratio (pull-down/input)
GATGATTGTTCTCCCAGCTGATGAATTCGTGGAGTCGAGTAAACAAATTTTCCTAATCTTTCTGTTCAAGCGCCATCTAC | 0.812 RPM ratio (pull-down/input)
GATGATTGTTCTCCCAGCTGATGAATTATTCAAATCGAGTAAACAAATTTTCCTAATCTTTCTGTTCAAGCGCCATCTAC | 1.11 RPM ratio (pull-down/input)
GATGATTGTTCTCCCAGCTGATGAATTCCAGAGTTCGAGTAAACAAATTTTCCTAATCTTTCTGTTCAAGCGCCATCTAC | 0.778 RPM ratio (pull-down/input)
